The values that follow come from the RNAGym collection of RNA variant scans (doi:10.7554/elife.90254).

Sequences and labels used below:
B1: OR4K15 (parent)
chain: GUUAACGGUCAUAGGCCAUGGAAACUAGGAGCACCAUUUCGCUGCCAGUGAAGAAAUGAACAAAGAAAAUCUGGGCCAGGCAGGCAUCAAAAGAAAUAGUCUUGCGCUCAACCAGAAAGUCUGUAAUCAUUUUAAGGGUA

The source gives no read counts; variants with many changes may rest on few reads.

This series covers variants of B1. Kind of series: self-cleavage, relative activity (ratio to wild type); higher = more cleavage; in vitro, sequencing; the parent is a self-cleaving ribozyme.
For the variant GUUAACGGUCAUAGGCCAUGGGAACUAGGAGCACCAUUUCGCUGCCAGUGAGGAAAUGAGCAAAGAAAAUCUGGGCCAGGCAGGCAUCAAAGGAAAUAGUCUUGCGCUCAACCAGAAAGUCUGUAAUCAUUUUAAGGGUA [A22G A52G A60G A92G], the self-cleavage worked out at 0.72. Turning to GUUAACGGUCAUAGGCCAUGGGAACUAGGAGCACCAUUUCGCUGCCAGUGGAGAAAUGAACAAAGAAAAUCUGGGCCAGGCAGGCAUCAAAAGGAGUAGUCUUGCGCUCAACCAGAAAGUCUAUAAUCAUUUUAAGGGUA [A22G A51G A94G A96G G123A], the self-cleavage worked out at 1.11.

Consider GUUAACGGUCAUAGGCCAUGGGAACUAGGAGCACCAUUUCGCUGCCAGUGAAGAAAUGAACACAGAAAAUCUGGGCCAGGCAGGCAUCAAAAGAAAUAGUCUUGCGCUCAACCAGAAAGUCUGUAAUCAUUUUAAGGGUG [A22G A63C A140G], for which the self-cleavage worked out at 1.73. On to GUUAACGGUCAUAGGCCAUGGGAACUAGGAGCACCAUUUCGCUGCCAGUGAAGAAGUGAACAAAGAAAAUCUGGGCCAGGCAGGCAUCAAAGGAAAUAGUCUUGCGCUCAACCAGAUAGUCUGUAAUCAUUUUAAGGGUA [A22G A56G A92G A117U], for which the self-cleavage turned out to be 0.9. In the case of GUUAACGGUCAUAGGCCAUGGGAACUAGGAGCACCAUUUCGCUGCCAGUGAAGAAAUGAACAGAGAGAAUCUGGGCCAGGCAGGCAUCAAAAGAAAUAGUCUCGCGCUCAACCAGAAAGUCUGUAAUCAUUUUAAGGGUA [A22G A63G A67G U103C] it was 1.25; in that of GUUAACGGUCAUAGGCCAUGGGAACUAGGAGCACCAUUUCGCUGCCAGUGAGGAAAUGAACAAAGAAAAUCUGGGCCAGGCAGGCAUCAAAAGAAAUAGUCCUGCGCCCAACCAUAAAGUCUGUAAUCAUUUUAAGGGUA [A22G A52G U102C U108C G115U], 0.02. As for GUUAACGGUCAUAGGCCAUGGGAACUAGGAGCACCAUUUCGCUGCCAGUGAAGAAGUGGACAAAGAAAACCUGGGCCAGGCAGGCAUCAAAAGAAAUAGUCUUGCGCUCAGCCAGAAAGUCUGUAAUCAUUUUAAGGGUA [A22G A56G A59G U70C A111G], the self-cleavage is 0.03.

Regarding GUUAACGGUCAUAGGCCAUGGGAACUAGGAGCACCAUUUCGCUGCCAGUGGAGAAAUGAACAAAGAAAAUCUGGGCCAGGCAGGCAUCAAAAGAAAUAGUCUUGCGCUCAACCAGAAAGUCCGUAAUCAUUUUAAGGGUA [A22G A51G U122C], the self-cleavage worked out at 1.15. As for GUUAACGGUCAUAGGCCAUGGGAACUAGGAGCACCAUUUCGCUGCCAGUGAAGGAAUGAACAAAGAAAAUCUGGGCCAGGCAGGCAUCAAAAGAAAUAGUCUUGCGCUCAACCAGAAAGUCCGUAAUCAUUUUAAGGGUA [A22G A54G U122C], the self-cleavage amounted to 0.88. On to GUUAACGGUCAUAGGCCAUGGGAACUAGGAGCACCAUUUCGCUGCCAGUGGAGAAAUGAGCAAAGAAAAUCAGGGCCAGGCAGGCAUCAAAAGAAAUAGUCUUGCGCUCAACCAGAAAGUAUGUAAUCAUUUUGAGGGUA [A22G A51G A60G U72A C121A A134G], for which the self-cleavage was 0.35.

As to GUUAACGGUCAUAGGCCAUGGGAACUAGGAGCACCAUUUCGCUGCCAGUGAAGAAGUGAACAAAGAAAAUCUGGGCCAGGCAGGCAUCAAAAGAAAUUGUCUUGCGCUCAACCAGAAAGUCUGUAGUCAUUUUAAGGGUA [A22G A56G A98U A126G], the self-cleavage came out at 1.25. Turning to GUUAACGGUCAUAGGCCAUGGGAACUAGGAGCACCAUUUCGCUGCCAGUGGAGAAAUGAACAAAGAAAAUCAGGGCCAGGCAGGCAUCAAAAGGAAUAGUCUUACGCUCAACCAGAAAGUCUGUAAUCAUUUUAAGGGUA [A22G A51G U72A A94G G104A], the self-cleavage amounted to 0.02.

Turning to GUUAACGGUCAUAGGCCAUGGGAACUAGGAGCACCAUUUCGCUGCCAGUGAAGGGAUGAACAAAGAAAAUCUGGGCCAGGCAGGCAUCAAAAGAAAUAGUCUUGCGCUCAACCAGAAAGUCUGUAAUCAUUUUAAGGGUA [A22G A54G A55G], the self-cleavage was determined as 1.11.

With GUUAACGGUCAUAGGCCAUGGGAACUAGGAGCACCAUUUCGCUGCCAGUGAGGAAAUGAACAAAGAAAAUCUGGGCCAGGCAGGCAUCAAAAGAAAUAGUCUUGCGCUCAACCAGAGAGUCUGUAAUCAUUUUAAGGGUA [A22G A52G A117G], the self-cleavage came out at 0.51. With GUUAACGGUCAUAGGCCAUGGGAACUAGGAGCACCAUUUCGCUGCCAGUGAAGAAAUGAACUAAGAAAAUCUGGGCCAGGCAGGCAUCAAGAGAAAUAGUCUUGCGCUCAACCAGAAAGUCUGUAAUCAUUUUAAGGGUA [A22G A62U A91G], the self-cleavage worked out at 0.27.

For the variant GUUAACGGUCAUAGGCCAUGGGAACUAGGAGCACCAUUUCGCUGCCAGUGAAGAGAUGAACAAAGAAAAUCUGGGCCAGGCAGGCAUCAAAAGAAGUAGUCUUGCGCUCAACCAGAAAGUCUGUAAUCAUUUUGAGGGUA [A22G A55G A96G A134G], the self-cleavage turned out to be 1.78.

Take GUUAACGGUCAUAGGCCAUGGGAACUAGGAGCACCAUUUCGCUGCCAGUGAAGAAAUGAGCAAAGAAAAUCUGGGCCAGGCAGGCAUCAAAAGAAAUAGUCUUGCGCUCAGCCAGAAAGUCUGUAAUCAUUUUGGGGGUA [A22G A60G A111G A134G A135G]: the self-cleavage was determined as 0.04. For the variant GUUAACGGUCAUAGGCCAUGGGAACUAGGAGCACCAUUUCGCUGCCAGUGAUGAAACGAACAAAGAAAAUCUGGGCCAGGCAGGCAUCUAAAGAAAUAGCCUUGCGCUCAACCAGAAAGUCUGUAAUCAUUUUAAGGGUA [A22G A52U U57C A89U U100C], the self-cleavage was found to be 1.67. Take GUUAACGGUCAUAGGCCAUGGGAACUAGGAGCACCAUUUCGCUGCCAGUGAGGAAGUGAACAAAGAAAAUCUGGGCCAGGCAGGCAUCAAAAGAAAUAGUCUUGCGCUCAACCAGAAAGUCUGUAAUCAUUUUAAGGGUA [A22G A52G A56G]: the self-cleavage amounted to 0.17. On to GUUAACGGUCAUAGGCCAUGGGAACUAGGAGCACCAUUUCGCUGCCAGUGUAGAGAUGAACAAAGAAAAUCUGGGCCAGGCAGGCAUCAAAAGAAAUAGUCUUGCGCUCAACCAGAAAGUCUGUAAUCAUUUUAAGGGUA [A22G A51U A55G], for which the self-cleavage stood at 2.41.
